Assay results as given in PubChem BioAssay AID2147 (National Center for Advancing Translational Sciences (NCATS), 2009).
“And” between values parts separate entries of the source, which are not always exact repeats. Equal entries are not always repeated. The whole screen tested about 230,000 compounds, of which about 3,600 (1.6%) were called active. The inconclusive results got no clear call from the source; some entries with a clear call stand among them for comparison. The call rests on the fitted dose curve; in most records, active means well fitted inhibition curve with a large enough effect (not every such curve was filed as active); inconclusive means small, poorly fitted or top-dose-only effect, or another doubt; inactive means no such curve, though single readings can be large or run the other way. Potencies of inconclusive entries are doubtful fits and often do not repeat.
Further: nearly all actives have a fitted effect of over 50% in size.
Potency means the concentration at half of the fitted maximal effect; tags describe the fitted curve by direction and shape.
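Wherever activity change, negative = inhibition is given: 0% = wells with enzyme and -100% = buffer wells without enzyme.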

Each compound was assayed against Lysine-specific demethylase 4E (Homo sapiens) (UniProt B2RXH2) (assay: qHTS Assay for Inhibitors of Human Jumonji Domain Containing 2E (JMJD2E)). Settings: JMJD2E catalytic domain, FDH-coupled NADH fluorescence (FDH is formaldehyde dehydrogenase); series mostly up to 57.1 µM; activity change, negative = inhibition: at the top concentration.
UniProt B2RXH2, sequence (B2RXH2 whole entry, looked up, the tested form may be a part): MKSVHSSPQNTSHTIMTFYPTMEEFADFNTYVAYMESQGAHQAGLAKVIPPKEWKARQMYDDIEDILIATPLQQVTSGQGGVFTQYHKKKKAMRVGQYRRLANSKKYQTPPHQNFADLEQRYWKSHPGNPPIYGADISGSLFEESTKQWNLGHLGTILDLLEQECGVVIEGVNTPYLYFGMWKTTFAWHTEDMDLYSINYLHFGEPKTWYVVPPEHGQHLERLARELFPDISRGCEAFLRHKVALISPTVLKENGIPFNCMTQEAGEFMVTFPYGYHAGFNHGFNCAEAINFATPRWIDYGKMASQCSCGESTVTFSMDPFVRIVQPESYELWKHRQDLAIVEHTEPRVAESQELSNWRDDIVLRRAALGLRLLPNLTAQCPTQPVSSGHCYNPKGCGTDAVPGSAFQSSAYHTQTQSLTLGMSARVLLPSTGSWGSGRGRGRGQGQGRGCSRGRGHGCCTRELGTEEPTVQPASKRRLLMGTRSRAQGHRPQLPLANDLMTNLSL
In the case of COc1cccc(NC(=O)CN(c2ccc([N+](=O)[O-])cc2)S(=O)(=O)c2ccccc2)c1, the “activity change, negative = inhibition” value is reported as inactive: 1.63%.
For Nc1ccccc1C#Cc1ccccc1, the Potency was inconclusive: 15.8 µM [inhibitor, partial curve] and inconclusive: 35.5 µM [inhibitor, partial curve].
For CCN(CC)c1ccc(/C=N/n2nnnc2N)c(O)c1, the Potency was inconclusive: 35.5 µM [inhibitor, single point].
With CCn1c(SCC(=O)N/N=C/c2c[nH]c3ccccc23)nnc1-c1ccc(C(C)(C)C)cc1 the “activity change, negative = inhibition” value was inactive: -17.1%.
O=C(O)C1CCN(S(=O)(=O)c2cccnc2)CC1 was tested, and the Potency was inconclusive: 39.8 µM [inhibitor, single point].
For Cc1ccc(OCC(O)CNC(=O)c2ccccc2C(=O)O)cc1 (stereo unspecified), the “activity change, negative = inhibition” value was inactive: -0.848%.
With COC(=O)c1ccc(-n2c(C)cc(-c3csc(NC(=O)c4ccc(S(=O)(=O)N(C)C)cc4)n3)c2C)cc1 the Potency was inconclusive: 39.8 µM [inhibitor, single point].
For O=C(Cc1cccc2ccccc12)Nc1ccccc1C(=O)O, the Potency was inconclusive: 25.1 µM [inhibitor, partial curve].
COCCCN1CCc2[nH]c(=S)[nH]c(=O)c2C1 was tested, and the Potency was inconclusive: 31.6 µM [inhibitor, single point].
In the case of CN(C(=O)COc1ccccc1)C1CCS(=O)(=O)C1 (stereo unspecified), the Potency is reported as inconclusive: 39.8 µM [inhibitor, single point].
For CCc1cc(=O)oc2c(C)c(O)c(CN(C)C)cc12, the Potency was inconclusive: 28.2 µM [inhibitor, partial curve].
With Cc1ccc(C)c(S(=O)(=O)N2CCC(c3nc4c(nnn4Cc4ccc(F)cc4)c(=O)[nH]3)CC2)c1 the “activity change, negative = inhibition” value was inactive: 0.914%.
With COc1ccc2c(c1)c(=O)oc1c(C)c(OCC(=O)N3CCc4ccccc4C3)ccc12 the Potency was inconclusive: 35.5 µM [inhibitor, single point].
With Cc1sc2nc(C3CC3)nc(SCC(=O)N3CCc4ccccc4C3)c2c1C the Potency was inconclusive: 35.5 µM [inhibitor, single point].
With CN(C)S(=O)(=O)c1cccc(NC(=O)c2ccc(Sc3nncn3C)c([N+](=O)[O-])c2)c1 the “activity change, negative = inhibition” value was inactive: -7.35%.
In the case of Cc1cc(N2CCN(C)CC2)nc2ccc(NC(=S)N3CCN(c4ccc(Cl)cc4)CC3)cc12, the Potency is reported as inconclusive: 8.91 µM [inhibitor, partial curve].
With Cc1ccc(OCC(=O)Nc2cccc(-c3nnc(-c4ccccc4)o3)c2)cc1 the Potency was inconclusive: 39.8 µM [inhibitor, single point].
For O=C(Nc1ccc(S(=O)(=O)NCc2cccnc2)cc1)c1ccco1, the Potency was inconclusive: 39.8 µM [inhibitor, single point].
In the case of CC1=NN(c2ccc(Cl)c(C(=O)O)c2)C(=O)/C1=C\c1ccc(-c2ccc(C(=O)O)cc2)o1, the Potency is reported as inconclusive: 28.2 µM [inhibitor, partial curve].
O=C(C1CC1)N1CCN=C1SCc1cccc(F)c1 was tested, and the “activity change, negative = inhibition” value was inactive: -3.13%.
O=C(NNC(=O)c1ccc(Oc2ccc(C3SCCS3)cc2)o1)c1ccc(Cl)cc1 was tested, and the “activity change, negative = inhibition” value was inactive: -7.19%.
In the case of Cc1ccc2nc(C)/c(=N\O)c(C)nc2c1, the Potency is reported as inconclusive: 25.1 µM [inhibitor, single point].
With Cc1ccc2nc3c(cc2c1)c(NC(=O)c1ccccn1)nn3CC(C)C the Potency was inconclusive: 3.16 µM [inhibitor, partial curve].
With Cc1ccc2c(c1)C1OCCC1C1N2C(=O)C2C(C(=O)O)C3C=CC21O3 (stereo unspecified) the Potency was inconclusive: 39.8 µM [inhibitor, single point].
For COC(=O)c1ccc(OCCCCN2CC(C)OC(C)C2)cc1 (stereo unspecified), the Potency was inconclusive: 7.08 µM [inhibitor, single point].
For CCN(CC)CCCN=Cc1c(O)n(-c2cccc(C)c2)c(=O)c2ccccc12, the Potency was inconclusive: 22.4 µM [inhibitor, partial curve].
With COC(CNC(=O)CSCc1nc(-c2ccc(SC)cc2)oc1C)OC the Potency was inconclusive: 25.1 µM [inhibitor, partial curve].
Cc1nc(NC(=O)/C=C/c2ccc(C(C)(C)C)cc2)sc1C(=O)N(C)C was tested, and the Potency was inconclusive: 22.4 µM [inhibitor, partial curve, poor fit].
COC(=O)CN(c1c(C)cccc1C)S(C)(=O)=O was tested, and the “activity change, negative = inhibition” value was inactive: 8.55%.
With Cn1c(C(=O)N2CCCC(C(=O)NCCCc3ccccc3)C2)cc2sccc21 (stereo unspecified) the “activity change, negative = inhibition” value was inactive: 0.11%.
CC(=O)c1cc2c(cc1NC(=O)CN1CCCCCC1)OCO2 was tested, and the Potency was inconclusive: 39.8 µM [inhibitor, single point].
For O=C(c1cc([N+](=O)[O-])ccc1Cl)N1c2ccccc2Sc2ccccc21, the “activity change, negative = inhibition” value was inactive: 2.16%.
COc1ccc(S(=O)(=O)N(C)c2ccc(C(=O)N3CCOCC3)cc2)cc1 was tested, and the “activity change, negative = inhibition” value was inactive: -1.7%.
N=C1/C(=C\c2ccc(-c3cccc(C(=O)O)c3)o2)C(=O)N=C2SC=C(c3ccccc3)N12 was tested, and the Potency was inconclusive: 39.8 µM [inhibitor, single point].
In the case of CCOC(=O)C(=CNc1ccc(NC2=NCC(C)(C)S2)cc1)C(=O)OCC, the Potency is reported as inconclusive: 39.8 µM [inhibitor, single point].
In the case of COc1cccc(/C=N/Nc2nc(Nc3ccccc3)nc(-n3nc(C)cc3C)n2)c1O, the Potency is reported as active: 20 µM.
CCN1CCN(Cc2c(O)c(Cl)cc3c(C)cc(=O)oc23)CC1 was tested, and the Potency was inconclusive: 8.91 µM [inhibitor, partial curve].
In the case of CC1CCc2sc(C(=O)NN=C3CCC(c4ccccc4)CC3)cc2C1 (stereo unspecified), the “activity change, negative = inhibition” value is reported as inactive: 3.51%.
With O=c1oc2ccccc2c(Cl)c1CN1CCCCC1 the Potency was inconclusive: 28.2 µM [inhibitor, single point].
In the case of O=C(NCc1ccccc1)c1cccc(COc2cc(Cl)ccc2Cl)c1, the “activity change, negative = inhibition” value is reported as inactive: -0.444%.
In the case of CON1C(=O)C(=O)N(OC)C(C)(C)C1(C)C, the “activity change, negative = inhibition” value is reported as inactive: -1.55%.
For COc1ccc(N2C=C3C(=O)C(C)(OC(=O)C4CCCC4)C(=O)C=C3C=C2c2ccsc2)cc1 (stereo unspecified), the Potency was inconclusive: 3.55 µM [inhibitor, single point].
For COC(=O)CC1C(=O)NCCN1C(=O)c1sc2ccccc2c1Cl (stereo unspecified), the “activity change, negative = inhibition” value was inactive: 3.34%.
In the case of CCn1cc(C(=O)NCCCN2CCCCCC2)c(=O)c2cc(S(=O)(=O)N3CCc4ccccc4C3)ccc21, the Potency is reported as active: 25.1 µM.
With Cc1cccc(NC(=S)NC(=O)/C=C/c2ccco2)c1 the “activity change, negative = inhibition” value was inactive: -5.1%.
For COc1cc(C2C(C(=O)N3CCOCC3)=C(C)NC3=C2C(=O)CCC3)ccc1OC(C)=O (stereo unspecified), the Potency was inconclusive: 31.6 µM [inhibitor, partial curve].
With CC(=O)O[C@@H]1C(=O)[C@@]2(C)[C@H](O)C[C@H]3OC[C@]3(OC(C)=O)[C@@H]2[C@H](OC(=O)c2ccccc2)[C@@]2(O)C[C@H](OC(=O)[C@@H](O)[C@@H](NC(=O)c3ccccc3)c3ccccc3)C(C)=C1C2(C)C (stereo in doubt) the “activity change, negative = inhibition” value was inactive: 2.39% [at 25.5 µM].
For CCOC(=O)c1ccccc1NC(=O)c1cc2sccc2n1C, the Potency was inconclusive: 35.5 µM [inhibitor, partial curve].
CCOCCCn1c(C)nc2c[n+](CC(=O)c3ccc4ccccc4c3)cc(Br)c21 was tested, and the Potency was inconclusive: 20 µM [inhibitor, partial curve].
For CCOc1ccc(OCC)c(NC(=O)CN2CCN(CC)CC2)c1, the Potency was inconclusive: 25.1 µM [inhibitor, single point].
Cc1ccc(S(=O)(=O)c2c(N)n(/N=C/c3ccco3)c3nc4ccccc4nc23)cc1C was tested, and the Potency was inconclusive: 14.1 µM [inhibitor, partial curve].
In the case of CC(C)c1nc(N2CCOCC2)c(C#N)c2c1CCCC2, the Potency is reported as inconclusive: 28.2 µM [inhibitor, partial curve].
O=C(Nc1nc2cc3c(cc2s1)OCCO3)c1cccc(N2C(=O)CCC2=O)c1 was tested, and the Potency was inconclusive: 31.6 µM [inhibitor, single point].
In the case of CC(C)=C1C(=O)C(c2ccccc2)=C2CN3C(=O)N(CCc4ccccc4)C(=O)[C@]3(C)[C@H]21, the “activity change, negative = inhibition” value is reported as inactive: -10.7%.
In the case of O=C(Nc1ccc(N2CCOCC2)cc1)c1cc2c(s1)CCCC2, the “activity change, negative = inhibition” value is reported as inactive: 9.98%.
In the case of CCN1CCN(c2cc(C)c3cc(NC(=S)N4CC(C)CC(C)C4)ccc3n2)CC1 (stereo unspecified), the Potency is reported as inconclusive: 15.8 µM [inhibitor, partial curve].
With CCOC(=O)C1=C(C)NC(SCC(=O)Nc2nc(C)cs2)=C(C#N)C1c1cccs1 (stereo unspecified) the Potency was inconclusive: 31.6 µM [inhibitor, single point].
With C/C(N)=C(/C#N)C(=O)COC(=O)Cc1coc2ccc3ccccc3c12 the Potency was inconclusive: 28.2 µM [inhibitor, single point].
In the case of CCOC(=O)NC(=O)CSc1nc(-c2ccc(C)c(C)c2)cn1-c1ccccc1, the Potency is reported as inconclusive: 35.5 µM [inhibitor, single point].
FC(F)(F)c1ccc(CN2CCCCCC2)cc1 was tested, and the Potency was inconclusive: 31.6 µM [inhibitor, single point].
In the case of COc1cccc(C2=NN(C(=O)CCCC(=O)O)C(c3cccs3)C2)c1 (stereo unspecified), the Potency is reported as inconclusive: 25.1 µM [inhibitor, single point].
For CCOCc1c(C(=O)OCC(=O)/C(C#N)=C(\C)N)oc2ccccc12, the Potency was inconclusive: 2.51 µM [inhibitor, partial curve, poor fit].
In the case of COc1ccc(C2=NN3C(C2)c2ccccc2OC32C(=O)N(C)c3ccccc32)cc1 (stereo unspecified), the Potency is reported as inconclusive: 35.5 µM [inhibitor, single point].
O=C(Oc1cc2oc(=O)c3c(c2cc1Cl)CCCC3)c1cccs1 was tested, and the Potency was inconclusive: 28.2 µM [inhibitor, partial curve].
In the case of O=c1[nH]c2ccccc2cc1CN(c1ccccc1)S(=O)(=O)c1ccccc1, the Potency is reported as inconclusive: 39.8 µM [inhibitor, single point].
For COc1cc(-c2nc(-c3ccccc3)c(-c3cccs3)[nH]2)cc(OC)c1O, the Potency was inconclusive: 31.6 µM [inhibitor, partial curve].
